In all, about 310,000 compounds went through this assay and about 2,200 (0.71%) showed an effect of 50% or more. Effects have a minus sign here. The list shows a part of the results.
molecular target: human ether-à-go-go-related gene (hERG) potassium channel (human, UniProt Q12809); assay: primary screen, population patch clamp on CHO cells stably expressing hERG
Sequence (Q12809 whole entry, looked up): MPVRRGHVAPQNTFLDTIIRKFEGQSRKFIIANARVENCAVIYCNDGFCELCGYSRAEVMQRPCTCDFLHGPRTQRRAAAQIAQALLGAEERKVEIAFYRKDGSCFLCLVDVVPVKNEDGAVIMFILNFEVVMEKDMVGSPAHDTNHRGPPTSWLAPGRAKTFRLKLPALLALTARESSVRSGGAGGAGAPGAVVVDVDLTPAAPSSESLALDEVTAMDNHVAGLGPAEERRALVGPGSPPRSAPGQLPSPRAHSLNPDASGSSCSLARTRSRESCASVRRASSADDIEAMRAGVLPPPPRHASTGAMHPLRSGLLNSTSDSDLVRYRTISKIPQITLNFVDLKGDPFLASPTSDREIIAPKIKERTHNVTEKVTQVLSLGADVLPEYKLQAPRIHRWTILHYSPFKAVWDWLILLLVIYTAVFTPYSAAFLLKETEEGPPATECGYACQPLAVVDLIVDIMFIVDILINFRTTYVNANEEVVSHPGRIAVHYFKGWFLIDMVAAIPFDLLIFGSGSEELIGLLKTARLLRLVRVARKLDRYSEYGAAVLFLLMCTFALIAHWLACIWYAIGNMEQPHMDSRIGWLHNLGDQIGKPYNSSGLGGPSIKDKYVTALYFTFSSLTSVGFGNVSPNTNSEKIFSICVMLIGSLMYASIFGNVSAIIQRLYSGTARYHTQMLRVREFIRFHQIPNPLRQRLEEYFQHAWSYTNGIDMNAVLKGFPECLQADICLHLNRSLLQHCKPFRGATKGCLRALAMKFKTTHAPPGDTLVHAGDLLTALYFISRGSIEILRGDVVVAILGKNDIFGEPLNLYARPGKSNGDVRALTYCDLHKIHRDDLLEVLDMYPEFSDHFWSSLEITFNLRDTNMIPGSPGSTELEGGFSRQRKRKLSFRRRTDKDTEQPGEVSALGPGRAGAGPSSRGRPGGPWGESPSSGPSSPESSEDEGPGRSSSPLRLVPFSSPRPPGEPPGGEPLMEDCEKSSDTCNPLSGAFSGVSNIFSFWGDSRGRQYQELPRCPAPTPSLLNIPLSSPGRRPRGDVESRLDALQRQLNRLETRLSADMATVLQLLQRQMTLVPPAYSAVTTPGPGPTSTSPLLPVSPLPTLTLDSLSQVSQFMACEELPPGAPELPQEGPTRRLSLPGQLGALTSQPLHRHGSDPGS

| Structure (SMILES) | hERG current change (%, negative = inhibition) at 1uM [%] |
| --- | --- |
| Cc1c(F)cccc1NS(=O)(=O)c1ccc2c(c1)c(C)cc(=O)n2C | 11.8 |
| Cc1[nH]nc(SCC(=O)Nc2ccc(C#N)cc2)c1[N+](=O)[O-] | 10.2 |
| COc1cc(/C=C2\SC(=O)N(CC(=O)Nc3cccc(C)c3)C2=O)ccc1OC(C)C(=O)O (centres unmarked) | 1.85 |
| CCOC(=O)C(=O)Nc1cc(C)on1 | 8.09 |
| CCN1C(=O)c2cccc3c(S(=O)(=O)NCc4ccco4)ccc1c23 | 6.91 |
| CC(Sc1ccc(Cl)cc1)C(=O)NNC(=O)c1ccccc1O (centres unmarked) | 11.7 |
| C#CC(CC)(CC)NC(=S)Nc1cccc(C(C)=O)c1 | -2.76 |
| CCOc1ccc(OCCN(C)Cc2ccccc2)cc1.O=C(O)C(=O)O | -25.5 |
| CCOC(=O)c1c(C)n(-c2ccccc2)c2ccc(O)cc12 | 13.5 |
| Cn1c(Cn2c(=O)sc3ccccc32)nnc1SCC(=O)N1CCOCC1 | 6.18 |
| Cc1c(OC(C)C(=O)NCc2ccncc2)ccc2c3c(c(=O)oc12)CCC3 (centres unmarked) | 17.3 |
| CCNC(=S)N1CCc2cc(OC)c(OC)cc2C1COc1ccc(F)cc1 (centres unmarked) | 6.89 |
| COc1ccc(C2SCC(C(=O)O)N2C(C)=O)cc1OC (centres unmarked) | 1.3 |
| N#Cc1nc(Cc2ccccc2)oc1N1CCCC1 | 4.79 |
| COc1cc(NC(=O)CSCc2cnn(-c3ccccc3)c2-n2cccc2)cc(OC)c1 | 17.3 |
| O=C(NCc1ccco1)/C(=C/c1ccc([N+](=O)[O-])cc1)NC(=O)c1ccco1 | -50.4 |
| Cc1nc(CN(C)C(=O)CC2C(=O)NCCN2Cc2ccc(-c3ccccc3)cc2)cs1 (centres unmarked) | 5.2 |
| CC1(Br)C2CCCC1C2S(=O)(=O)c1ccccc1 (centres unmarked) | 11.2 |
| Cc1ccc(-n2nc(C)c(C3(O)C(=O)N(C(C)C)c4ccccc43)c2N)cc1 (centres unmarked) | 9.7 |
| Cc1nnc(NCCN2CCOCC2)[nH]c1=O | 6.92 |
| Cc1cc(=O)oc2c(C)c(OCC(=O)NCC3CCC(C(=O)O)CC3)ccc12 (centres unmarked) | 9.51 |
| CCC(C)NC(=O)CCn1c(-c2ccc(F)cc2)cc(C(C)=O)c1C (centres unmarked) | 8.96 |
| CCOc1ccc(CCNC(=O)CCN2C(=O)COc3ccccc32)cc1OCC | 6.22 |

| Structure (SMILES) | hERG current change (%, negative = inhibition) at 1uM [%] |
| --- | --- |
| NS(=O)(=O)c1ccc(CCNC(=O)Cc2cccs2)cc1 | 8.92 |
| COc1ccc(/C=C2\Sc3ccc(C(=O)N4CCOCC4)cc3N(C)C2=O)cc1 | 5.95 |
| CCOC(=O)C1(Cc2ccc(OC)cc2)CCN(S(C)(=O)=O)CC1 | 7.04 |
| O=C1c2cccnc2C(Nc2cccc(F)c2)N1Cc1ccco1 (centres unmarked) | 8.54 |
| Cc1[nH]c2ccccc2c1/C=N/NC(=O)CNC(=O)c1ccco1 | 18 |
| CC(=O)c1c(C)[nH]c(C(=O)OCC(=O)N(C)c2c(N)n(Cc3ccccc3)c(=O)[nH]c2=O)c1C | -11.1 |
| CC(C)Sc1nc(-c2ccccc2)cc(=O)[nH]1 | 10.1 |
| Cc1ccc(C)c(NCC(=O)NNC(=S)Nc2ccccc2)c1 | 15 |
| CCS(=O)(=O)c1ccc(-c2csc(-c3ccccc3)n2)c(Cl)c1Cl | 12.1 |
| O=C1C(Cc2ccccc2)C(c2ccccc2)N1c1ccccc1 (centres unmarked) | -0.202 |
| CCCOC(=O)Nc1ccc([As](=O)(O)O)cc1NC(=O)OCCC | 13.7 |
| C=CCNC(=S)NNC(=O)c1ccc(=O)n(Cc2ccc(Cl)cc2Cl)c1 | 12.1 |
| [N-]=[N+]=NC(c1ccccc1)c1nc2ccccc2[nH]c1=O (centres unmarked) | 4.3 |
| NC(=O)CC(NC(=O)c1ccc(Cl)cc1)C(=O)NCCc1ccc(S(N)(=O)=O)cc1 (centres unmarked) | 16.1 |
| Cc1ccc(C(=O)N/N=C\c2cccc(OC(=O)c3cccc(F)c3)c2)cn1 | 13.5 |
| Cc1cc(C)n(-c2cc(Cl)cc(Cl)c2)c(=O)c1C#N | 16.5 |
| CC(C)(C)CC(=O)NCCCN1CCOCC1 | 9.12 |
| Cc1ccc2c(CC(=O)OC3CCOC3=O)coc2c1 (centres unmarked) | 7.2 |
| CCOC(=O)N1CCN(S(=O)(=O)c2cc(Br)cc3c2N(C(C)=O)C(C)C3)CC1 (centres unmarked) | 2.9 |
| COc1ccc(C(=O)Nc2cccc(-c3ccc(N4CCOCC4)nn3)c2)cc1OC | 11.4 |
| O=C(CN1CCSC1=O)N1CCN(S(=O)(=O)c2ccccc2)CC1 | 6.72 |
| CC(C)(C)NC(=O)Cn1cnc2cc([N+](=O)[O-])ccc2c1=O | 1.24 |
| O=C(NC1CCCCC1)N1CCC(c2nc(-c3ccc(S(=O)(=O)N4CCCC4)cc3)no2)CC1 | -8.43 |

| Structure (SMILES) | hERG current change (%, negative = inhibition) at 1uM [%] |
| --- | --- |
| O=C(NC1CCCCC1)C(c1ccc(F)cc1)N(Cc1ccco1)C(=O)CN1C(=O)c2ccccc2S1(=O)=O (centres unmarked) | -0.847 |
| COC(=O)Cn1ncn2cccc2c1=O | 12 |
| COc1cccc(CN(CC2CCCO2)S(=O)(=O)c2ccc(S(=O)(=O)N(C)C)cc2)c1 (centres unmarked) | 7.5 |
| CC1CN(C(=S)Nc2ccc(F)cc2F)CC(C)O1 (centres unmarked) | 11.3 |
| CN(c1ccccc1C(=O)O)S(=O)(=O)c1ccc2[nH]c(=O)[nH]c2c1 | 16.3 |
| COn1c(-c2ccccc2)nc2c1CCc1c-2no[n+]1[O-] | 8.78 |
| O=C(NCc1ccccn1)C1CC(c2ccccc2O)=NO1 (centres unmarked) | 13 |
| CCOc1ccc(C(=O)NCC(=O)OCc2csc(-c3ccccc3)n2)cc1 | 11.3 |
| O=C(N/N=C\c1cn(-c2ccccc2)nc1-c1ccccc1)c1ccc2c(c1)OCO2 | 13.4 |
| Cc1ccc(S(=O)(=O)Nc2c(C)n(C)n(-c3ccccc3)c2=O)c(C)c1 | 10.7 |
| Cc1ccc(S(=O)(=O)NCCC(=O)N2CC(C)OC(C)C2)cc1C (centres unmarked) | 9.3 |
| COc1cc2nc(NC(=O)c3ccc(F)cc3Cl)sc(=O)c2cc1OC | 14.7 |
| O=C(NC1CCCCCC1)C1c2ccccc2C(=O)N1Cc1cccnc1 (centres unmarked) | 2.1 |
| N#Cc1ccc(OCC(=O)N2CCCC2=O)cc1 | 10.8 |
| C=CCc1cccc(/C=N/NC(=O)COc2ccc(-n3cnnn3)cc2)c1O | 12.2 |
| O=C(CN1C(=O)c2ccccc2S1(=O)=O)Nc1cccnc1 | 7.85 |
| C=CCn1ncc(OC)c(Cl)c1=O | 4.03 |
| O=C(Nc1ccc(F)cc1)C(=O)c1c(O)[nH]c2ccc([N+](=O)[O-])cc12 | 6.67 |
| Cc1ccc(S(=O)(=O)N2CCC(NC(=O)c3cccc(F)c3)CC2)cc1 | 9.79 |
| CC(C)(C)c1ccc(S(=O)(=O)NC(Cc2ccccc2)C(=O)O)cc1 (centres unmarked) | 8.88 |
| Cc1nn(CC(=O)NC2CCS(=O)(=O)C2)c(C)c1S(=O)(=O)N(C)C (centres unmarked) | -3.45 |
| CCOCc1c(C(=O)NC2=Nc3ccccc3NC(CC)=C2C(=O)OCC)oc2ccccc12 | 11.2 |
| CC(C)COc1ccc(C(=O)NC(CC(C)C)C(=O)O)cc1 (centres unmarked) | 10.2 |

| Structure (SMILES) | hERG current change (%, negative = inhibition) at 1uM [%] |
| --- | --- |
| CCOC(=O)C1=CC[C@H]2c3c(c4ccccc4n3C)C(=O)C1N2C | 15.3 |
| COc1ccccc1N1CCN(Cc2cc(=O)c(OCC(=O)Nc3ccccc3)co2)CC1 | 13.4 |
| O=C(CN1c2cccc3cccc(c23)S1(=O)=O)NCc1ccc(Cl)cc1 | 0.845 |
| O=C(c1ccc(Cl)cc1)C1CCN(C(=O)NC2CCCCC2)CC1 | 0.184 |
| CC(C)c1ccc(NC(=S)N2CCCC(c3ccc(F)cc3)=N2)cc1 | 11 |
| Cc1cc([N+](=O)[O-])cc2c1NC(c1ccccn1)C1CC=CC21 (centres unmarked) | 8.71 |
| COc1ccc(NC(=O)C(NC(=O)c2ccc(=O)[nH]c2)c2ccc(C)cc2)cc1 (centres unmarked) | 13.4 |
| O=C(NC(C(=O)c1ccccc1)n1cnccc1=O)c1ccccc1 (centres unmarked) | 16.7 |
| CC(=O)N1CCc2c(sc(NC(=O)Cc3ccc(F)cc3)c2C(N)=O)C1 | 13.9 |
| CCOc1ccc(C(=O)N2CCCC2)cc1 | 10.9 |
| CC(Sc1n[nH]c(-c2cccs2)n1)C(=O)Nc1ccccc1F (centres unmarked) | 19.7 |
| O=C(CCCSc1nc2ccccc2[nH]1)NCc1ccc(Cl)cc1 | -8.79 |
| O=C(O)CNc1ncccc1[N+](=O)[O-] | -34.9 |
| CN(CC(=O)Nc1cccc(F)c1)C(=O)c1cn(-c2ccccc2)nc1-c1ccccc1 | 6.79 |
| CC(=O)c1c(C)[nH]c(C(=O)CSc2nc3ccccc3c(=O)n2CCCO)c1C | 5.85 |
| Cc1ccc(OCC(=O)NCCNC(=O)c2cccnc2)cc1C | 20 |
| O=C(Cn1c(=O)n(Cc2ccco2)c(=O)c2ccccc21)Nc1cccc(Cl)c1 | 8.31 |
| CC(C)c1ccc(NC(=O)CNCC(c2ccccc2)N(C)C)cc1 (centres unmarked) | 6.64 |
| COC(=O)c1ccccc1NC(=O)CSc1nncn1C | 15.6 |
| COc1ccc(NCC(=O)n2c(C)c(C)c3ccccc32)cc1OC | 14.3 |

Source: paper PMC4336329 (PLoS ONE, 2015)
